The other results are listed elsewhere or left out.
biological target: T1, OsWOX13 (Oryza sativa, UniProt Q5QMM3 1-267); experiment: protein-binding microarray (RPBM); PBS, 2% BSA, 51.3 ng/ul salmon testes DNA, 50 uM zinc acetate, 200 nM TF, 25 C, 1 h; high values mean tight binding; conditions: protein: recombinant; tags: N-terminal polyhistidine and DsRed monomer fusion (pET32a); label: CyDye5-dUTP incorporated in the synthesized complementary strand; 3' TTTTT single-stranded linker to array surface; dsDNA, one strand shown
T1 sequence: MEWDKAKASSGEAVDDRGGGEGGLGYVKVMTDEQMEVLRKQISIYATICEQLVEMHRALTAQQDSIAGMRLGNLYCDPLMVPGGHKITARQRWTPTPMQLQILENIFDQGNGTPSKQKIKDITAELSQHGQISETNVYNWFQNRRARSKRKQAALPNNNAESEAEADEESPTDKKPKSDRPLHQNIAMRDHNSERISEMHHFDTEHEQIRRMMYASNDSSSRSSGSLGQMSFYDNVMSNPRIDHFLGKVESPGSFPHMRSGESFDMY
Method in brief: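 Using Ni–NTA, transcription factors fused N-terminally to polyhistidine and DsRed were purified after expression in E. coli BL21-CodonPlus. These were incubated at 200 nM with a blocked, double-stranded custom Agilent array for 1 h at 25 °C in a buffer containing 50 µM zinc acetate, and the array was washed. The binding signal is per-feature fluorescence intensity (arbitrary units) on an Axon 4000B scanner.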

Sequence	binding signal
GCCTATCACTCAATCACCTCCTTCCCACGCAAAACAACTCCGGAGTCACCTAGTGCAG	10800 fluorescence intensity (a.u.)
CCTGCATGATTTGCGGCTCCTCCTCCGTCCATCCAGGCTGCGGAGTCACCTAGTGCAG	14200 fluorescence intensity (a.u.)
CCCTAATCCCATTTAATCAGCACAGCTTCTTAATTACTCCCGGAGTCACCTAGTGCAG	6810 fluorescence intensity (a.u.)
TCTAATTAATCCATGATTAGCCTATGTGATGCTACAGTAACGGAGTCACCTAGTGCAG	25100 fluorescence intensity (a.u.)
CAGATAAAATTGACTTATTAATCTTGGGAAGGCCGTTACTCGGAGTCACCTAGTGCAG	16300 fluorescence intensity (a.u.)
TGTAATTAAACTTTAATTTTACTATAGTTATATCTTAAAGCGGAGTCACCTAGTGCAG	34700 fluorescence intensity (a.u.)
AGAACATAATTAATCAATTATTAGTTTTATAAACTTAAAACGGAGTCACCTAGTGCAG	9640 fluorescence intensity (a.u.)
TTGATTAGTATAACTAGCCAATTGATCTAATTGCGTGCCTCGGAGTCACCTAGTGCAG	52200 fluorescence intensity (a.u.)
TAATGATACTAATTGGTAATTGCAACTTGGACGTTTAGACCGGAGTCACCTAGTGCAG	22700 fluorescence intensity (a.u.)
ATGTTCTTTGCTGATTGCTAACCAGAAGAGAAGAAACCCTCGGAGTCACCTAGTGCAG	5410 fluorescence intensity (a.u.)
GTTTTAAATGACCAGTTAGTTACAGGCTTACAGCTAGCCACGGAGTCACCTAGTGCAG	8660 fluorescence intensity (a.u.)
CTTACTCAATTAAAGCTGTTTGCTGTTTCGTGGTTATCACCGGAGTCACCTAGTGCAG	7180 fluorescence intensity (a.u.)
ATTACATACCTGATTGAGTTGGTACTACAAGGCAGGGAGCCGGAGTCACCTAGTGCAG	16400 fluorescence intensity (a.u.)
ACTAATTATTTAGATGGTCCAAGAGAAACGAGATGTGTCACGGAGTCACCTAGTGCAG	23900 fluorescence intensity (a.u.)
CAGTATAGATTTGTTAAGTTTATTTATTAAAATATTTTCTCGGAGTCACCTAGTGCAG	3190 fluorescence intensity (a.u.)
CCACGCCAATTAGCATCCCACGTTTCGCCTTTGATTGTGGCGGAGTCACCTAGTGCAG	10600 fluorescence intensity (a.u.)
TTTTAAAATTTAAATTTTATATAGTTCAATCAAACTCGGACGGAGTCACCTAGTGCAG	21700 fluorescence intensity (a.u.)
AACGAAAGATTGAACCCCTGACCGGACCACTGCTACTTTGCGGAGTCACCTAGTGCAG	4720 fluorescence intensity (a.u.)
AATAAATTTGCAAAATCTAATAAGTACATAGTAGAGTGCACGGAGTCACCTAGTGCAG	15700 fluorescence intensity (a.u.)
CCCTCTAATGATTAAGAGCCGTATTGCTTTAGATCTAATACGGAGTCACCTAGTGCAG	6200 fluorescence intensity (a.u.)
AGTGAGCTGATAGATAGACTATAACTAAGCAGCTGGATGTCGGAGTCACCTAGTGCAG	8540 fluorescence intensity (a.u.)

Sequence	binding signal
GAGCAAAATTAAAATATTTTCTACAATTATATATACATAGCGGAGTCACCTAGTGCAG	3390 fluorescence intensity (a.u.)
GATAACTGGTAAGCAAGCAAGCTCTTCACAATCATATGGCCGGAGTCACCTAGTGCAG	10800 fluorescence intensity (a.u.)
ATGGATTTAGATTGGCGTGCGTCTCTTAACCGCACGAATGCGGAGTCACCTAGTGCAG	20800 fluorescence intensity (a.u.)
TTTCGTAATTATAATTAGGCAGTACAAGTACTTAACAAGACGGAGTCACCTAGTGCAG	35500 fluorescence intensity (a.u.)
CCGTCTGTCATGAATGATAGAAATGTTATGAGTACGATGACGGAGTCACCTAGTGCAG	3400 fluorescence intensity (a.u.)
TGGTGATTTTACCCCTAACAGACTGGGACACTACTGTTTCCGGAGTCACCTAGTGCAG	13700 fluorescence intensity (a.u.)
GTATTTATTTCAATTAAAATCTTTATTTATAACAACATCTCGGAGTCACCTAGTGCAG	3470 fluorescence intensity (a.u.)
TTTGTTGATTTGTGTGTATGAATTATGATGGGCCCATGACCGGAGTCACCTAGTGCAG	29400 fluorescence intensity (a.u.)
TTGATTGATGGGAGTCTAACAAAGTGACAAAACTTAGCAACGGAGTCACCTAGTGCAG	53900 fluorescence intensity (a.u.)
ATCTTAATTTTATTGATAGAGAGAGATTTACGGATGTGTGCGGAGTCACCTAGTGCAG	52200 fluorescence intensity (a.u.)
TTAATTAGACTTAACAAATTCGTCTCACAATTTAAGGGCGCGGAGTCACCTAGTGCAG	26500 fluorescence intensity (a.u.)
AGTAAATGTCAATCATATCTACTTTCTCAGGTCTACAGAGCGGAGTCACCTAGTGCAG	38000 fluorescence intensity (a.u.)
GGTAGTAAATGATTTTAAATGGAAAATTGTGAGCAACAGGCGGAGTCACCTAGTGCAG	19400 fluorescence intensity (a.u.)
GTAGTAACTTGTAAATAGATGAGAATCTAATAAACAAGTTCGGAGTCACCTAGTGCAG	4330 fluorescence intensity (a.u.)
TTGACAATATTTGATAGGTTGTCCAATGGTATCGATTATTCGGAGTCACCTAGTGCAG	9460 fluorescence intensity (a.u.)
CTCTGTTCTAAAATAATTAGCGTTCTAGATTATTTAGGAACGGAGTCACCTAGTGCAG	7270 fluorescence intensity (a.u.)
CTTAATTAATCACGTGTTAACCTATCGCTCCATTTTCCGACGGAGTCACCTAGTGCAG	52200 fluorescence intensity (a.u.)
ATAATTGCACTAGATTATACTGTAATTACATATGTCAAATCGGAGTCACCTAGTGCAG	27300 fluorescence intensity (a.u.)
ATGGAAACATGATTGCACAGAGCGTGTTTACTACTCTTATCGGAGTCACCTAGTGCAG	16200 fluorescence intensity (a.u.)
TTTAAGTCGTATAATTAACCTTTTGTAATTTTGAGTGAGACGGAGTCACCTAGTGCAG	3910 fluorescence intensity (a.u.)
ATATTTTATGATAAATTAATTATCCAAGGTTATAAATGATCGGAGTCACCTAGTGCAG	13300 fluorescence intensity (a.u.)

Sequence	binding signal
AATTAATCCATGATTAGCCATAAGTGCTACAGTAACTTACCGGAGTCACCTAGTGCAG	12800 fluorescence intensity (a.u.)
AATTTAATTAATTATGACTTCAGCTTGGTAGGTTCAGTTGCGGAGTCACCTAGTGCAG	53000 fluorescence intensity (a.u.)
CAAGCGACGGTAATTACGGTGGTATTTGTGATATTTCTATCGGAGTCACCTAGTGCAG	3480 fluorescence intensity (a.u.)
GAAAATTGACATAAGGCTTTGTCTTTTGTATGCAACACTTCGGAGTCACCTAGTGCAG	49500 fluorescence intensity (a.u.)
AAATCTGTAATTTGTTTTATTATTAATATATGTTTAATACCGGAGTCACCTAGTGCAG	7820 fluorescence intensity (a.u.)
CTCCAATTTATTTATAGTCGATCTAACAGCTAATTCGTTTCGGAGTCACCTAGTGCAG	7110 fluorescence intensity (a.u.)
CTAATAAACTGTCATGGCTTATAATCAGTTCAGAGCAACCCGGAGTCACCTAGTGCAG	9930 fluorescence intensity (a.u.)
TGCAATCAACAATTAATGGGATGGCCGACCGGTGTGGTTGCGGAGTCACCTAGTGCAG	21300 fluorescence intensity (a.u.)
CGTGATGATTAGACAAGCTTAAAATTACCCTATTTGACGTCGGAGTCACCTAGTGCAG	26500 fluorescence intensity (a.u.)
TCTCTCCATTTACTTTTGATAACCATATTTTATTTTGACACGGAGTCACCTAGTGCAG	3510 fluorescence intensity (a.u.)
AATAAATACTCTAATTGCTAGCAACCAACGTCCCAACCCACGGAGTCACCTAGTGCAG	9560 fluorescence intensity (a.u.)
TCAATCAATCCAATCCATCCCACACACCGCCCATCTCCCTCGGAGTCACCTAGTGCAG	9950 fluorescence intensity (a.u.)
TATGATAATTTGTTTAATAATAAATCTAATAACACCAATTCGGAGTCACCTAGTGCAG	21800 fluorescence intensity (a.u.)
TTTATGTGTTAATTATGCACCATATTATTTGCGGTGAATACGGAGTCACCTAGTGCAG	11700 fluorescence intensity (a.u.)
TAAATGTAATCACCGAATTAGCTGTCCATTAATAAACTTCCGGAGTCACCTAGTGCAG	4500 fluorescence intensity (a.u.)
CAGAAAACTGGAAAGTAATAATATAACTGGGGATGTTTCTCGGAGTCACCTAGTGCAG	6200 fluorescence intensity (a.u.)
CCTTCCGTTTCCGTTCCGTTCCATTTCCCGTTCACACCCTCGGAGTCACCTAGTGCAG	4500 fluorescence intensity (a.u.)
CAATAATAATGGTAAACAAATTTAGTCAAAGTTAAATAGTCGGAGTCACCTAGTGCAG	7710 fluorescence intensity (a.u.)
GCCCTCTCCAATCACTGCCATGCCGCGCGTGTGCCTTCCGCGGAGTCACCTAGTGCAG	13200 fluorescence intensity (a.u.)
TTACACTAATATATTCCATCAACACGTTGTAACTACTCCCCGGAGTCACCTAGTGCAG	3160 fluorescence intensity (a.u.)
TTCACGCTTGATTGGGCTGGGATTAAGGCCCATTTATACACGGAGTCACCTAGTGCAG	23500 fluorescence intensity (a.u.)

Sequence	binding signal
GAGTGTTTGATTGCTGCAGTGTGTCTCGGCAAAGCGCGACCGGAGTCACCTAGTGCAG	20100 fluorescence intensity (a.u.)
ACGTAATTATAATTATTTTATTGTGAGTTGTTTTATTACTCGGAGTCACCTAGTGCAG	26500 fluorescence intensity (a.u.)
GCATCAAGATTACGGGTTAACTTTCTTTAGTTAACTCATGCGGAGTCACCTAGTGCAG	3180 fluorescence intensity (a.u.)
GGGCTATAAATTTATAGTCAACTATAACACGGACTTTAAGCGGAGTCACCTAGTGCAG	6880 fluorescence intensity (a.u.)
ATGACTGTCAAATTATAACACATATAGCTTATCCTGGAAGCGGAGTCACCTAGTGCAG	31700 fluorescence intensity (a.u.)
CCTAATTAGTCTTTTAGTGATAGGCGAAGTATCCGTCAACCGGAGTCACCTAGTGCAG	42300 fluorescence intensity (a.u.)
CGAGTTTAATTGCCATAATAATACGCAATACCCAAATATACGGAGTCACCTAGTGCAG	14600 fluorescence intensity (a.u.)
TGTCAATCAGCGAGCTGACAGCGAACCCCGACGCGCTTCCCGGAGTCACCTAGTGCAG	30700 fluorescence intensity (a.u.)
ATTAATTAGATGGTTGAATGACTCCCTTAACTCATGTTAGCGGAGTCACCTAGTGCAG	45700 fluorescence intensity (a.u.)
TGCTAATCTGATTTGATCCAAATTATATGGTTATTAATCACGGAGTCACCTAGTGCAG	11000 fluorescence intensity (a.u.)
GGTGATTGGGAGCGAGCGCAGCCGCCTACTTCTAGGGAGCCGGAGTCACCTAGTGCAG	45500 fluorescence intensity (a.u.)
AAATTAAATTATACTCAATACACAAGTTTGAATCTGATTCCGGAGTCACCTAGTGCAG	11400 fluorescence intensity (a.u.)
AACTGATCATAACTTCTGCCCAATCAACTCCAGAGTATTCCGGAGTCACCTAGTGCAG	7250 fluorescence intensity (a.u.)
AGGATCGTTAATTAATAGTGACCCCGGTGACAACCTATCCCGGAGTCACCTAGTGCAG	20700 fluorescence intensity (a.u.)
CGCGCAATTACCTCATTATCCTCTAGATTTTGTGGCAACTCGGAGTCACCTAGTGCAG	8460 fluorescence intensity (a.u.)
CAATTTTGCTGATAGGCATAGATTAATCTCTTTGAAAATCCGGAGTCACCTAGTGCAG	4070 fluorescence intensity (a.u.)
AATTGATTGGACTCCACCAACATTAAAATAGTTGTTGATGCGGAGTCACCTAGTGCAG	56400 fluorescence intensity (a.u.)
ATTGATTGCAGCGTGTCATCAGAAACTATAGGACGTGAACCGGAGTCACCTAGTGCAG	42600 fluorescence intensity (a.u.)
TGTGAACGTAATTTTAATATAATTTTATTGAGGCTAGGGACGGAGTCACCTAGTGCAG	12500 fluorescence intensity (a.u.)
GCAGGATTGACAGAACTCGGGGAGGTCTCCTGATCCGGTGCGGAGTCACCTAGTGCAG	41400 fluorescence intensity (a.u.)
AAACTTAATTACAGAATCCGTTAGTAAACCGCGAGACGAACGGAGTCACCTAGTGCAG	18400 fluorescence intensity (a.u.)
